Test results as given in the RNAGym collection of RNA variant scans (doi:10.7554/elife.90254).
The source gives no read counts; variants with many changes may rest on few reads.

B1: LINE1-mini (parent)
chain: GGCAGAGCUCAACACAGCGUGGCAAAGUGGCUGUGGCUAGACUGCC

Variants of: B1
Assay: self-cleavage, relative activity (ratio to wild type); higher = more cleavage; in vitro, sequencing; the parent is a self-cleaving ribozyme

| Variant | self-cleavage |
| --- | --- |
| GGCAGAGCUCAACACGGCGUGGCAAAGUUGCUGUGGCUAGAAUGCC [A16G G29U C42A] | 0.07 |
| GGCAGAGCUCAACACGGCGUGGCAAAGUGGCUGUGGAUAGUCUGCC [A16G C37A A41U] | 0.03 |
| GGCAGAGCUCAACACGGCGUGGCUAAGUGGUUGUGGCUAGACUGCC [A16G A24U C31U] | 0.01 |
| GGCAGAGCUCAACACGGAGAGGCAAAGCGGCUGUGGCUAGACUGCC [A16G C18A U20A U28C] | 0.05 |
| GGCAGAGCUCAACACGGCAUUGCAAGGUGGCUGUGGCUAGACUGCC [A16G G19A G21U A26G] | 0.76 |
| GGCAGAGCUCAACACGGCGUGGCCAAGUGGGCGUGGCUAAACUGCC [A16G A24C C31G U32C G40A] | 0.03 |
| GGCAGAGCUCAACACGGCGUGGCAAAAUAGCUGUGGCUAGACUGGC [A16G G27A G29A C45G] | 0.09 |
| GGCAGAGCUCAACACGGAGUGGCAAAGUGGCUUGGGCUAGACUGCC [A16G C18A G33U U34G] | 0.04 |
| GGCAGAGCUCAACACGGCGUUGCAAAGUGGGUGUGGCUAGUCUGCC [A16G G21U C31G A41U] | 0.01 |
| GGCAGAGCUCAACACGGCGUGGCAAAGUAGCUGUGGUUAGAAUGCC [A16G G29A C37U C42A] | 0.01 |
| GGCAGAGCUCAACACGGCGUGGCACAUUGGCUGUGGCUAGACUGCC [A16G A25C G27U] | 0.55 |
| GGCAGAGCUCAACACGGCGUGGCAGAGUGGCUGUGGCUAGAUUGCA [A16G A25G C42U C46A] | 0.05 |
| GGCAGAGCUCAACACGGCGUGGCAAAGUAGCUGUGGCUAGAAUGCC [A16G G29A C42A] | 0 |
| GGCAGAGCUCAACACGGCGUGGCAAAGUGGCUGUGGCUAGAAUGCA [A16G C42A C46A] | 0.01 |
| GGCAGAGCUCAACACGGCGUAGCAAAGUGGCUGUGGCUAGACUGAC [A16G G21A C45A] | 0.2 |
| GGCAGAGCUCAACACGGCAUGGCAAAGCGGCUGUGGCUAGACUGCC [A16G G19A U28C] | 0.6 |
| GGCAGAGCUCAACACGGCGUGGCUAAGUGGCUGUGGGUAGACUGCC [A16G A24U C37G] | 0.03 |
| GGCAGAGCUCAACACCGCGUGGCAAAGUGGCUGGCGCUAGACUGCC [A16C U34G G35C] | 0.01 |
| GGCAGAGCUCAACACGGCGUGUCAAAGGGGCUGUGGCUAGACUGCA [A16G G22U U28G C46A] | 0 |

| Variant | self-cleavage |
| --- | --- |
| GGCAGAGCUCAACACGCCGUGGCAAAGUGGCUGUGGCUAGCCUGCA [A16G G17C A41C C46A] | 0.06 |
| GGCAGAGCUCAACACGGCGUGGCACAGUGUCUGUGGCUGGACUGCC [A16G A25C G30U A39G] | 0 |
| GGCAGAGCUCAACACGGAGUUGCAAAGUGGCUGUGGCUAGACUGCA [A16G C18A G21U C46A] | 0.02 |
| GGCAGAGCUCAACACGGCGUGGCAAACAGGCUGUGGCUAGACUGCC [A16G G27C U28A] | 0.14 |
| GGCAGAGCUCAACACGGCGUGGCAAAUAGGCUGUGGCGAGACUGCC [A16G G27U U28A U38G] | 0.05 |
| GGCAGAGCUCAACACGGCGUGGAAAAGUGGGUGUGGUUAGACCGCC [A16G C23A C31G C37U U43C] | 0 |
| GGCAGAGCUCAACACCGCGUGGCAAAGUGGCUGGGGCUAGACUAAC [A16C U34G G44A C45A] | 0.08 |
| GGCAGAGCUCAACACGGUGUGGCAAAGUGGCAGUGGCUAGACUGCC [A16G C18U U32A] | 0.03 |
| GGCAGAGCUCAACACGGUGCGGCAAAGUGGCUGUUGCUAGCCUGCC [A16G C18U U20C G35U A41C] | 0.02 |
| GGCAGAGCUCAACACGGCGUGAUAAAGUGGCUGUGGCUAGAGUGCC [A16G G22A C23U C42G] | 0.02 |
| GGCAGAGCUCAACACGGCGUGGCAAAGUGGAUGUUGCUAGACUGCC [A16G C31A G35U] | 0.12 |
| GGCAGAGCUCAACACGGCGUGGCAAAGUUGCUGUGUCUAGACUGCC [A16G G29U G36U] | 0.1 |
| GGCAGAGCUCAACACGGCGUGACUGAGUGGCUGUGGCUAGAGUGCC [A16G G22A A24U A25G C42G] | 0 |
| GGCAGAGCUCAACACGGCGUAGCAAAGUGGCUGUGGCUAGACAGCC [A16G G21A U43A] | 0.09 |
| GGCAGAGCUCAACACGGCGUGGCAAGAUGGCUGUGGCUAGACUGCC [A16G A26G G27A] | 0.14 |
| GGCAGAGCUCAACACGGCGUGGCAAGCUGGCUGUGGCUAGACUGCC [A16G A26G G27C] | 0 |
| GGCAGAGCUCAACACGGCGUGGCAAAUUGGCUGUGGCUACACUGCC [A16G G27U G40C] | 0.05 |
| GGCAGAGCUCAACACGGCGUGUCAAAGUGGCUGUUGCAAGACUGCC [A16G G22U G35U U38A] | 0.09 |
| GGCAGAGCUCAACACGCCUUGGCAAAGUGGCUAUGGCUAGACUGCC [A16G G17C G19U G33A] | 0.01 |

| Variant | self-cleavage |
| --- | --- |
| GGCAGAGCUCAACACGGCGUGGCAAAGUCGCUGUGGCUAUACUGCC [A16G G29C G40U] | 0.04 |
| GGCAGAGCUCAACACGGCGUGACAAUGUGGCUGUGGCUAGACUGCC [A16G G22A A26U] | 0.49 |
| GGCAGAGCUCAACACGGCGUGGAAAAGUGGCAGUAGCUAGACUGCC [A16G C23A U32A G35A] | 0.17 |
| GGCAGAGCUCAACACGGGGUGGCAAAGUGGCUGUGGCUAGACUGCG [A16G C18G C46G] | 0.05 |
| GGCAGAGCUCAACACGGCUUGGCAAAGUGGCUGUGGCUAGACUGCA [A16G G19U C46A] | 0.18 |
| GGCAGAGCUCAACACGGCGUGGCAAAGUGGCUGUGGCUAGAGUUCC [A16G C42G G44U] | 0.09 |
| GGCAGAGCUCAACACGACGUGGCAAAGUGGCUGUGGCUAGACUGAC [A16G G17A C45A] | 0.03 |
| GGCAGAGCUCAACACGGCGUGGCGUAGUGGCUGUGGCUAGACUGCA [A16G A24G A25U C46A] | 0.05 |
| GGCAGAGCUCAACACCGCGGGGUAAAGUGGGUGUGGCUAGACUGCC [A16C U20G C23U C31G] | 0.02 |
| GGCAGAGCUCAACACGGCGUGGCGAAGUGGCUCUGGCUAGACUGCC [A16G A24G G33C] | 0.01 |
| GGCAGAGCUCAACACGGCGUGGUAAAGAGGCUGUUGCUAGACUGCC [A16G C23U U28A G35U] | 0.06 |
| GGCAGAGCUCAACACGGCGUGGCAAAGUGGGUGUGGCAAGAAUGCC [A16G C31G U38A C42A] | 0.01 |
| GGCAGAGCUCAACACGGCGUGGCAAAGUGGAUGCGGCUAGACUCCC [A16G C31A U34C G44C] | 0.01 |
| GGCAGAGCUCAACACGGCUUGGCCACGUGGAUGUGGCUAGACUGCG [A16G G19U A24C A26C C31A C46G] | 0.03 |
| GGCAGAGCUCAACACGGCGUGUUAAAGUGCAUCAGUCUAGACUGCA [A16G G22U C23U G30C C31A G33C U34A G36U C46A] | 0 |
| GGCAGAGCUCAACACGGUGUGGCAAAGUUGCUGUGGCUAGACUUCC [A16G C18U G29U G44U] | 0.02 |
| GGCAGAGCUCAACACGGCGUGACAACGUAGCUGUGGCUAGUCUGCC [A16G G22A A26C G29A A41U] | 0.21 |
| GGCAGAGCUCAACACGGCUUGGCAAAGUGGCUGUGGAUAGACUGCC [A16G G19U C37A] | 0.02 |
